This is an account of results in the supplement of paper PMC12645437, “Orthogonal IMiD-Degron Pairs Induce Selective Protein Degradation in Cells” (ACS Chemical Biology, 2025).

This is one part of the list.
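Note: jurkat cells carrying a lentiviral library of mutant zinc finger degrons fused to EGFP plus mCherry, mCherry+ cells FACS sorted, degron abundance counted by next-generation sequencing.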

The target in this assay is no compound (DMSO). Briefly: log2 fold change of degron read counts, EGFP-low vs EGFP+ sorted cells; higher = lower degron-EGFP level without compound (poor expression or instability). The note with it: compound: DMSO control; 18 h.
In the case of FFCPICGAVFTQKGNLLRHIKL, the “log2 fold change of degron read counts” value worked out at 0.425.

With FSCDVCGAAFTQKGNLLRHIKL, the “log2 fold change of degron read counts” value was -1.56.

As to FYCDVCGAFFTQKGNLLRHIKL, the “log2 fold change of degron read counts” value was 0.0643.

As for FCCNQCGAMFTQKGNLLRHIKL, the “log2 fold change of degron read counts” value is -0.439.

For the sequence FNCPICGAEFTQKGNLLRHIKL, the “log2 fold change of degron read counts” value is -0.874.

Turning to FWCEVCGATFTQKGNLLRHIKL, the “log2 fold change of degron read counts” value is -0.895.

Consider FFCDVCGAYFTQKGNLLRHIKL, for which the “log2 fold change of degron read counts” value was -0.486.

With FGCDICGARFTQKGNLLRHIKL, the “log2 fold change of degron read counts” value was -1.19.

As to FNCNVCGACFTQKGNLLRHIKL, the “log2 fold change of degron read counts” value is -0.104.

Take FKCEICGAVFTQKGNLLRHIKL: the “log2 fold change of degron read counts” value is -1.64.

As for FECDICGAYFTQKGNLLRHIKL, the “log2 fold change of degron read counts” value was -1.44.

Turning to FNCSVCGHQFTQKGNLLRHIKL, the “log2 fold change of degron read counts” value was -1.01.

In the case of FCCDVCGADFTQKGNLLRHIKL, the “log2 fold change of degron read counts” value was -2.

Turning to FYCDICGAPFTQKGNLLRHIKL, the “log2 fold change of degron read counts” value was -0.734.

Take FKCPVCGAPFTQKGNLLRHIKL: the “log2 fold change of degron read counts” value is 0.222.

As to FWCEICGAMFTQKGNLLRHIKL, the “log2 fold change of degron read counts” value is -0.184.

Regarding FFCNQCGADFTQKGNLLRHIKL, the “log2 fold change of degron read counts” value is -0.091.

For FICNQCGHDFTQKGNLLRHIKL, the “log2 fold change of degron read counts” value is -1.87.

Take FHCNQCGRPFTQKGNLLRHIKL: the “log2 fold change of degron read counts” value is 0.0851.

In the case of FMCPICGHAFTQKGNLLRHIKL, the “log2 fold change of degron read counts” value was -0.0169.

With FVCNQCGATFTQKGNLLRHIKL, the “log2 fold change of degron read counts” value was -0.609.

Turning to FSCPICGHFFTQKGNLLRHIKL, the “log2 fold change of degron read counts” value amounted to 0.0848.

Turning to FHCNQCGRVFTQKGNLLRHIKL, the “log2 fold change of degron read counts” value was 0.188.

Consider FFCPICGHGFTQKGNLLRHIKL, for which the “log2 fold change of degron read counts” value came to 0.606.

Consider FNCNQCGHRFTQKGNLLRHIKL, for which the “log2 fold change of degron read counts” value came out at 0.566.

Take FGCEICGRKFTQKGNLLRHIKL: the “log2 fold change of degron read counts” value was -1.43.

As for FDCEICGHFFTQKGNLLRHIKL, the “log2 fold change of degron read counts” value stood at 1.27.

As to FHCPICGRFFTQKGNLLRHIKL, the “log2 fold change of degron read counts” value is -1.63.

As to FYCPICGHNFTQKGNLLRHIKL, the “log2 fold change of degron read counts” value was -0.223.

On to FDCNICGAHFTQKGNLLRHIKL, for which the “log2 fold change of degron read counts” value was -0.596.

Take FCCEICGACFTQKGNLLRHIKL: the “log2 fold change of degron read counts” value was -0.878.

Take FECEQCGALFTQKGNLLRHIKL: the “log2 fold change of degron read counts” value was -1.96.

Regarding FSCEQCGADFTQKGNLLRHIKL, the “log2 fold change of degron read counts” value is -2.97.

For the sequence FKCPICGHWFTQKGNLLRHIKL, the “log2 fold change of degron read counts” value worked out at 0.394.

FTCEICGRIFTQKGNLLRHIKL: the “log2 fold change of degron read counts” value is -0.457.

Consider FKCNICGAKFTQKGNLLRHIKL, for which the “log2 fold change of degron read counts” value is -1.45.

With FLCEICGHTFTQKGNLLRHIKL, the “log2 fold change of degron read counts” value is -2.24.

FWCEICGRCFTQKGNLLRHIKL: the “log2 fold change of degron read counts” value was -0.141.

Turning to FHCPVCGARFTQKGNLLRHIKL, the “log2 fold change of degron read counts” value is -0.166.

For the sequence FCCNQCGHDFTQKGNLLRHIKL, the “log2 fold change of degron read counts” value was -0.686.

FTCPQCGAHFTQKGNLLRHIKL: the “log2 fold change of degron read counts” value stood at 0.344.

FICNQCGHHFTQKGNLLRHIKL: the “log2 fold change of degron read counts” value was -0.806.

In the case of FACEQCGAMFTQKGNLLRHIKL, the “log2 fold change of degron read counts” value was -1.97.

As for FYCNQCGHWFTQKGNLLRHIKL, the “log2 fold change of degron read counts” value was determined as 1.21.

On to FECEQCGADFTQKGNLLRHIKL, for which the “log2 fold change of degron read counts” value was -3.18.

For the sequence FNCPICGAKFTQKGNLLRHIKL, the “log2 fold change of degron read counts” value was -0.296.

For FRCNQCGRCFTQKGNLLRHIKL, the “log2 fold change of degron read counts” value is -0.514.

As to FLCDICGAIFTQKGNLLRHIKL, the “log2 fold change of degron read counts” value is -0.0128.

FICNVCGAEFTQKGNLLRHIKL: the “log2 fold change of degron read counts” value is -1.25.

Turning to FDCNICGAMFTQKGNLLRHIKL, the “log2 fold change of degron read counts” value amounted to 0.211.
